# Data as given in the supplement of paper PMC3334620.
# In all, about 33,000 sequences were measured (“E-score (-0.5 to 0.5)”: median about -0.04, highest 2% from about 0.36 on). Some of the results follow.
# Target: T1, Hmlalpha2 (UniProt P0CY09)
# T1 sequence: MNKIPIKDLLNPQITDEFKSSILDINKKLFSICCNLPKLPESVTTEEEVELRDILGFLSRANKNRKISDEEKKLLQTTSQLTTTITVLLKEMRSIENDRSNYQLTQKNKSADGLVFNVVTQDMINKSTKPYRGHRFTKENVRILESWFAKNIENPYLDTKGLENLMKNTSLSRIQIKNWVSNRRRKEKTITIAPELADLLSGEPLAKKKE
# Assay: PBM E-score (8-mer binding enrichment) (E-score (-0.5 to 0.5)); higher = stronger / more preferred TF binding; most listed sequences are background and not binding sites
# Settings: protein concentration: 200 nM; construct: GST-full length
# Procedure, shortened: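 Each ungapped eight-base word and its reverse complement, pooled, received an E-score from the Universal PBM Analysis Suite. Underlying scans, normalised with masliner, recorded fluorescent anti-GST bound to GST-tagged yeast transcription factors. These were applied at about 100-200 nM to universal all-10-mer Agilent arrays double-stranded by primer extension.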
row,Sequence,PBM E-score
1,CTCACGTA,0.00392
2,GACCTGCA,-0.192
3,ACATACAA,0.325
4,CGAACGTC,-0.153
5,AAAGGGTT,-0.0891
6,AAGTTTAA,0.132
7,GACACGGC,0.223
8,GGAAGCAA,-0.0502
9,ATCATTTA,0.231
10,CATAAGGC,-0.0696
11,ATTGCGCG,0.177
12,ATGTGGAG,-0.112
13,GAATGCCC,-0.238
14,TCGCAGCA,0.00533
15,CCAGATTC,-0.361
16,CACGCCCG,0.0469
17,GAAACATC,0.0475
18,AAAGATAT,0.0507
19,ACCTAATC,0.108
20,AGTAGAGG,-0.226
21,GCCACGAC,-0.0179
22,AGTTACGC,0.202
23,TAACTGTA,0.116
24,CTGACCAG,-0.201
25,ATAGACGG,-0.202

row,Sequence,PBM E-score
1,AGCGAGAG,-0.142
2,CTACATCA,0.222
3,GAAAGGAA,-0.149
4,AGGTGATG,0.00666
5,TAGTATCA,0.19
6,GCACTGTA,0.0153
7,ATTGGAAC,0.0527
8,AATGACCT,0.0504
9,GTGTGGAA,0.129
10,CCATGGAA,0.0299
11,CTCTGTTA,0.23
12,AACAGCCA,0.125
13,CTCTAATA,0.154
14,ACCTCGTG,0.182
15,ACTTCGCC,-0.0363
16,ATGTCGTC,0.0787
17,GGGCCTAA,-0.264
18,AAGGATAC,-0.00296
19,CGAGTTCA,0.147
20,CCACGATA,-0.11
21,CCTTTACA,0.448
22,ACGACCGG,-0.221
23,AAACTGAA,0.0485
24,ACTTATTG,-0.0347
25,AAGGGTTC,-0.253

row,Sequence,PBM E-score
1,ATTATGTG,0.17
2,CACTGTCA,0.0458
3,CTCGCCTA,-0.237
4,CGCGAGAA,-0.107
5,CAGGAAAA,0.112
6,CCCGCAAA,0.0485
7,TACCTAGA,0.0163
8,AAACAAAA,0.178
9,ACAAAAAA,0.187
10,AACTAGGG,-0.094
11,CAGAAGGA,-0.358
12,GTCCATGA,-0.066
13,GCGCGACC,-0.0639
14,AACCTAAG,-0.0401
15,TTCTTAAA,0.0653
16,AGCCCTCG,-0.0958
17,CAGTTAAA,0.142
18,AACAGATG,0.0895
19,CCGTATGC,-0.273
20,GCGATAAC,0.0891
21,CATGTGAG,0.0552
22,GACGACGA,-0.259
23,GGAAATCC,-0.143
24,AAAAACCA,0.121
25,ACGGACTG,-0.0969

row,Sequence,PBM E-score
1,CGCCTGCA,-0.237
2,CGAACTAA,0.108
3,ATACGTCG,0.0982
4,CGACCATA,-0.177
5,AGCCCGCT,-0.292
6,AAAGACAT,0.0187
7,TACAAATA,0.286
8,AGGGGCAT,-0.0545
9,AAAGTTAC,0.204
10,CATTTGTA,0.284
11,CGGACCAC,-0.104
12,AGACTGAG,-0.279
13,GGTATTAA,0.083
14,CCTGATCA,-0.335
15,AAAGGATC,-0.0701
16,CGTCATCC,-0.102
17,ACGGTCAA,0.0638
18,CCGATTCG,-0.0146
19,CCTGGGAA,-0.0441
20,CATTACGA,0.214
21,AACGATAA,0.0196
22,ATAACCCG,-0.197
23,GCACAAAA,0.168
24,ACCCTCTC,-0.21
25,CACCATCG,-0.24

row,Sequence,PBM E-score
1,GACTGTAC,-0.0265
2,GTCCCTAA,-0.0373
3,CTCGCAAA,-0.0524
4,AGGACGTC,-0.0353
5,AGCAGAGC,-0.151
6,GCCTTGCA,-0.18
7,ATAAAGGG,-0.169
8,ACAATGCC,0.0996
9,AGCATCTC,-0.281
10,CCTCTAAA,-0.127
11,AGAGCGGA,-0.141
12,AATCACCT,0.102
13,ACCAGTAG,0.0137
14,CTTGGATA,-0.0407
15,AAGGGTCT,-0.197
16,GTTTAGGA,-0.179
17,ATTGGCGA,-0.127
18,AGTGTGAG,-0.162
19,CTGTACGA,0.0646
20,CAAATCCA,-0.00845
21,CGCCACCG,-0.296
22,AAGGACTT,-0.136
23,ATCTCATC,-0.105
24,AGCCTCAT,-0.227
25,AAACTCTC,0.0417

row,Sequence,PBM E-score
1,CGAACCCA,-0.05
2,CATGGTTA,0.27
3,GACACTAC,0.125
4,CTAGAATA,0.168
5,ATACTCGC,0.0126
6,GATCACGA,-0.199
7,CCCTACGG,-0.236
8,CGCGTAGC,0.265
9,GGCGTAGA,0.0109
10,CGAGCTCG,0.168
11,CTAACACC,0.153
12,AATTCGCA,-0.0405
13,GGGCTCAA,-0.172
14,GATGCCGC,-0.269
15,GGATCCAC,-0.284
16,CAGAGGTA,0.0532
17,GTCTTCAA,-0.0238
18,ACTAGCGA,-0.0981
19,AAACGGCA,0.0925
20,ATACATCA,0.334
21,CAGACATA,0.147
22,CCGCGGAG,-0.238
23,CCTTCAGC,-0.259
24,AGTCTAGA,-0.196
25,TCCAAGGA,-0.173

row,Sequence,PBM E-score
1,ATTGAGTG,0.0928
2,GATCAGGC,-0.263
3,TACTCCAA,-0.0939
4,AACGAAGG,-0.3
5,TCTTCGCA,0.133
6,CTTCAGTC,-0.203
7,ACGTCAAC,0.194
8,GATCGACA,0.124
9,CGTGCTAA,0.223
10,CCATTTGA,-0.144
11,ACCCTCCC,-0.22
12,GTCGCAGA,-0.169
13,AATCTTGT,0.201
14,AAATGTAG,0.113
15,TACAATCA,0.274
16,AAGAGATA,0.00934
17,ATTCGTAC,0.136
18,ACAGCTCC,-0.092
19,GATGTTCC,-0.0446
20,GCTGCCCA,-0.252
21,AGCGTTGG,-0.0565
22,AAGATGGA,-0.256
